# Measurements: PMC4336329 (PLoS ONE, 2015)
# In all, about 310,000 compounds went through this assay and about 2,200 (0.71%) showed an effect of 50% or more. Effects have a minus sign here. This is one part of the list.
# Biological target: human ether-à-go-go-related gene (hERG) potassium channel (human, UniProt Q12809)
# Assay: primary screen, population patch clamp on CHO cells stably expressing hERG
# Chain of human ether-à-go-go-related gene (hERG) potassium channel (Q12809 whole entry, looked up): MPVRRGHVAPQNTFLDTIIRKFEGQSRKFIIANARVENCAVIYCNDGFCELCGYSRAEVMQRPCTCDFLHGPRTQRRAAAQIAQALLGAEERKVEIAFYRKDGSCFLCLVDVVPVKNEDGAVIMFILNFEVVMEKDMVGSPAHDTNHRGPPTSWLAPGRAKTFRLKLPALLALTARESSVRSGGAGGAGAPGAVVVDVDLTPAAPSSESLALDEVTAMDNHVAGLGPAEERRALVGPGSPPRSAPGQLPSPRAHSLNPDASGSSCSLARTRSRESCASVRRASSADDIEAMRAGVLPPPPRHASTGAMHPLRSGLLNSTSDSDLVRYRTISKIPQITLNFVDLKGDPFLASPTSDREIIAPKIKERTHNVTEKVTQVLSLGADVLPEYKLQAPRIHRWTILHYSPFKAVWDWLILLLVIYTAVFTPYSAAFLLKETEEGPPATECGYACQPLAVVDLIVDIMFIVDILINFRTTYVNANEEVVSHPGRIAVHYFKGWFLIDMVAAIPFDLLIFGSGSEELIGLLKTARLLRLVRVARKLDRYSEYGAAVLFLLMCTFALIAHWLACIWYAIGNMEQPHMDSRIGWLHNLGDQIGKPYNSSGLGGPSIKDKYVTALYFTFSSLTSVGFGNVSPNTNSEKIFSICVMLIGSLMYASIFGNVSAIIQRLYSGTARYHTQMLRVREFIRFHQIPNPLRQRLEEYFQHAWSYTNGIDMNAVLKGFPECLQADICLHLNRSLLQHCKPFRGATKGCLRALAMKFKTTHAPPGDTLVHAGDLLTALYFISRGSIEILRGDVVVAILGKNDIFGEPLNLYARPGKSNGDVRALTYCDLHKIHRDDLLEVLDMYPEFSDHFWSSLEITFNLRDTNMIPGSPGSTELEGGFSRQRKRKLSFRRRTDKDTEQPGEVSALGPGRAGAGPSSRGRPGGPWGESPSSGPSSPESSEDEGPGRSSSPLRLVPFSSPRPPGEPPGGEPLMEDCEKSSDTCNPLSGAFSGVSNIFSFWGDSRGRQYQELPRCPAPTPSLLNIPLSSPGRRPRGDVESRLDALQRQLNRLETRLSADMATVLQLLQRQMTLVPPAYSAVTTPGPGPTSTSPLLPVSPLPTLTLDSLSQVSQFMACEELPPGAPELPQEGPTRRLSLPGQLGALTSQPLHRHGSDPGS
row,SMILES,"hERG current change (%, negative = inhibition) at 1uM [%]"
1,CCN(Cc1ccccc1)C(c1cc2ccc(C)cc2[nH]c1=O)c1nnnn1CCOC (stereo not drawn),12.2
2,Cc1ccc(Nc2nc3ccccc3nc2-n2nc(C)cc2C)cc1,7.45
3,CCn1c(CNC(=O)c2cccc(C)c2)nnc1SCC(=O)N1CCOCC1,11.3
4,COc1ccc(-n2nc(C(=O)O)cc2-c2ccccc2)cc1,12.8
5,CN(CC(=O)Nc1ccccc1C(F)(F)F)C(=O)CSc1nnnn1C,17.1
6,CC(C)n1c(/N=C/c2c[nH]c3ccccc23)nc2ccccc21,1.01
7,CCc1ccc(N2C(=O)Nc3ccc(Br)cc3C2(O)C(=O)NCCN(C)C)cc1 (stereo not drawn),6.27
8,Nc1ccccc1S(N)(=O)=O,13.4
9,O=C(/C=C/c1ccccc1)NCC(=O)N/N=C/c1ccccc1[N+](=O)[O-],2.81
10,COCCCNC(=S)N1CCN(C(c2ccccc2)c2ccccc2)CC1,8.26
11,CCOC(=O)c1ccc(NC(=O)CCCN2C(=O)NC3(CCCC3)C2=O)cc1,6.26
12,CC(C)CNS(=O)(=O)c1ccc(S(=O)(=O)N2CCN(CCC#N)CC2)cc1,10.3
13,NC(=S)Cc1nc(-c2ccc(Cl)cc2)cs1,8.82
14,CSCC[C@H](Nc1ncnc2sc(C)c(C)c12)C(=O)O,7.62
15,CCN(CCCNC(=O)CCn1c(=O)[nH]c2ccccc2c1=O)c1ccccc1,13.6
16,COc1cccc(-c2nnc3n2N=C(c2cccc(Br)c2)CS3)c1,4.8
17,Cl.Oc1ccc(C2=CCNCC2)cc1O,10.3
18,Cc1cccc(/C=N/NC(=O)Cn2nc(C)cc2C)n1,11
19,Cc1nn(Cc2ccccc2)c(C)c1C(=O)N1CCN(S(=O)(=O)/C=C/c2ccccc2)CC1,7.19

row,SMILES,"hERG current change (%, negative = inhibition) at 1uM [%]"
1,Cn1cc([N+](=O)[O-])c(C(=O)Nc2cnn(Cc3ccc(F)cc3)c2)n1,5.82
2,COC(=O)c1[nH]c2c(c1C)C(=O)CC(c1ccccc1)C2 (stereo not drawn),9.13
3,CCOc1ccc(NC(=O)Nc2cc(C(=O)O)ccc2N2CC3CC(C2)c2cccc(=O)n2C3)cc1 (stereo not drawn),12.6
4,CCn1cc(CN2CCCC(CO)(Cc3cccc(Cl)c3)C2)cn1 (stereo not drawn),9.58
5,CCNC(=S)N(Cc1ccc2c(c1)OCO2)C1CC(=O)N(c2ccc(F)cc2)C1=O (stereo not drawn),-1.66
6,Cn1nnnc1SCC(=O)NCc1cccs1,15.1
7,COc1ccc(CNC(=O)c2cc(-c3ccco3)on2)cc1,1.92
8,O=C(CCl)NN=C(c1ccccc1)c1ccccc1,5.28
9,COc1ccc(C2=CC(=O)OC3(CCCCC3)O2)cc1,-11.9
10,O=C(CC12CC3CC(CC(C3)C1)C2)NCc1ccncc1,-4.22
11,N#CCSc1nc2ccccc2c(=O)n1C1CCCCC1,8.96
12,Cc1sc2nc(-c3cccnc3)[nH]c(=O)c2c1-c1ccccc1,0.0574
13,O=C(OCC(=O)c1ccc(Cl)s1)c1cnccn1,7.55
14,O=C(c1ccc(Cl)cc1)N1CCN(c2cc(=O)[nH]nc2-c2ccccc2)CC1,-7.11
15,CCC(=O)Nc1ccc(C(=O)COC(=O)c2nc3nccc(C)n3n2)cc1,-2.9
16,Cc1ccc2cc3cc(C(=O)N4CCCCC4C)oc3nc2c1 (stereo not drawn),7.78
17,O=C(CNC(=O)N1CC(=O)Nc2ccccc21)NCc1cccc(Cl)c1,12.2
18,Cn1c(=O)c2c(nc(NCc3ccco3)n2CCc2ccccc2)n(C)c1=O,-11.3
19,O=C(NC1CCCCCC1)C(=S)NCc1ccccc1,10.4

row,SMILES,"hERG current change (%, negative = inhibition) at 1uM [%]"
1,CCOCCCNC(=S)N1CCCN(c2nc3cc(C)ccc3cc2C#N)CC1,5.25
2,CCc1cccc(CC)c1NC(=O)COC(=O)c1ccccc1-c1nc2ccccc2s1,20.4
3,COc1ccc(Cl)cc1C(=O)N1CCC2(CC1)CC(=O)c1ccccc1O2,-71.7
4,Clc1ccc(-n2nnnc2-c2cnc(-c3ccccn3)nc2-c2cccs2)cc1,2.12
5,CCOC(=O)c1c(NC(=O)C(C)N2CCN(C(=O)c3ccco3)CC2)sc2c1CCCC2 (stereo not drawn),-13.9
6,CSc1nc2c(c(=O)[nH]c(=O)n2C)n1CCCc1ccccc1,17.6
7,CSCc1c(C(=O)Nc2ccc3c(c2)OCO3)oc2ccccc12,14.9
8,Cc1cc(-c2ccccc2)nc(N/N=C/c2ccc([N+](=O)[O-])cc2)n1,7.63
9,O=C(Nc1ccc(F)c(Cl)c1)C1CC2CCC1C2 (stereo not drawn),12.3
10,Cc1cc(C)nc(SCC(=O)Nc2ccc(S(=O)(=O)NCCO)cc2)n1,-1.09
11,O=C(Nc1ccc2c(c1)OCCO2)c1cccnc1,16.7
12,COc1ccc(-c2csc(NC3OC(=O)c4ccccc43)n2)cc1 (stereo not drawn),4.98
13,CCN1C(=O)[C@H]2[C@@H](c3ccc(C)cc3)N3C(=O)N(c4cccc(F)c4)C(=O)[C@@]3(CC)[C@H]2C1=O,7.18
14,O=C(COc1ccc(CO)cc1)Nc1ccc(F)cc1,9.48
15,COc1ccc(S(=O)(=O)N2CCOC2CNC(=O)C(=O)NCc2ccc3c(c2)OCO3)cc1 (stereo not drawn),-3.99
16,C#Cc1ccc([C@H]2C=C(C(=O)OCC=C)O[C@@H](OCc3ccc(CO)cc3)C2)cc1,2.09
17,Cc1ccc(/C=C/C(=O)Nc2nnc(SCc3ccc(C#N)cc3)s2)o1,-6.21
18,Cc1nn(CCCC(=O)NC2CCC(C)CC2)c(=O)c2nn(-c3ccccc3)c(C)c12 (stereo not drawn),7.87
19,CC(=O)Nc1sc(C)c(C)c1C(=O)OCC(=O)N(CC(C)C)c1c(N)n(Cc2ccccc2)c(=O)[nH]c1=O,6.48
